Measurements as given in patent publication US20260274891A1, “¿ OPIOID RECEPTOR AGONIST AND USE THEREOF” (CHENGDU AODA BIOTECHNOLOGY CO., LTD., priority 2023, published 2026).
Part of at least one peptide drawing is inferred or uncertain, most often the ends. Bridge positions count the residues as written; N and C are the ends. Square brackets hold non-standard residues; d marks the D form. Side chains are listed from the residue outwards. Peptide text beside a SMILES is read from it. I, II: the chains in the order shown. * marks the point of attachment. X22 = NCCCC[C@@H](NC(=O)[C@@H](CCCCN)NC(=O)C1(N)CCN(*)CC1)C(N)=O; X12 = CCOc1ccc(C[C@@H](NC(=O)[C@H](N)Cc2ccccc2)C(=O)*)cc1; X15 = NCCCC[C@H](NC(=O)COCCOCCNC(=O)C1(N)CCN(*)CC1)C(=O)O; X2 = NCCCC[C@H](NC(=O)COCCOCCNC(=O)C1(N)CCN(*)CC1)C(N)=O; X13 = NCCCC[C@@H](NC(=O)COCCNC(=O)C1(N)CCN(*)CC1)C(=O)O; X17 = NCCCC[C@H](NC(=O)COCCNC(=O)C1(N)CCN(*)CC1)C(=O)O; X24 = NCCCC[C@H](NC(=O)COCCNC(=O)C1(N)CCN(*)CC1)C(N)=O; X9 = NCCCC[C@@H](NC(=O)COCCNC(=O)C1(N)CCN(*)CC1)C(N)=O; Piperidin1yl(4-NH2,4-COOH) = NC1(C(=O)O)CCN(*)CC1; X1 = NCCCC[C@@H](NC(=O)C1(N)CCN(*)CC1)C(N)=O; Api = NC1(C(=O)O)CCNCC1

Biological target: T1, human κ opioid receptor (OPRK1) (Homo sapiens, UniProt P41145)
T1 construct: expressed in transfected cells; host or cells: CHO-K1
T1 sequence (P41145 whole entry): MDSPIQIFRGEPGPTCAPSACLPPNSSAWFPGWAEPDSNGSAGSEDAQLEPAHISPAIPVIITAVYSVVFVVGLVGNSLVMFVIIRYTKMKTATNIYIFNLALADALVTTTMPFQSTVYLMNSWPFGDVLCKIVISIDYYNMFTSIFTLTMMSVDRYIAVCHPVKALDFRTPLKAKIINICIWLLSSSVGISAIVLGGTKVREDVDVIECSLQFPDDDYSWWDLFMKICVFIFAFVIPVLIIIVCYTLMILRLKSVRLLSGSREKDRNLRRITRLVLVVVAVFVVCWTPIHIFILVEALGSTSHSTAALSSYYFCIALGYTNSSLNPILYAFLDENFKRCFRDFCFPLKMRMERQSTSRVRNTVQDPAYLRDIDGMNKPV
Assay: Determination of activities of κ receptor agonists: inhibition of forskolin-stimulated cAMP release (HTRF) in stably transfected CHO-K1 cells
Assay type: cell-based
Details: for EC50: CHO-K1 cell line stably expressing opioid receptors, forskolin-stimulated cAMP, HTRF; for Relative Activity %: relative to Difelikefalin = 100.0
From the text: Gi-coupled human κ opioid receptor (OPRK1), upon stimulation with its specific opioid receptor agonists, can inhibit the intracellular adenylate cyclase pathway, and decrease cAMP levels. Forskolin can stimulate cAMP release in cell lines highly expressing opioid receptors. By stimulating cell lines stably transfected with opioid receptors, the inhibitory effect of a test compound on forskolin-stimulated cAMP release can be measured to determine the activity of the compound. The relative light units (RLU) from the cells after stimulation with different doses were measured via the homogeneous time-resolved fluorescence technique (HTRF), and the EC50 value of the agonist was subsequently calculated. This activity determination method is a currently commonly used method for determining the activities of opioid receptor agonists at home and abroad.
A CHO-K1 cell line stably expressing opioid receptors was used. Stably transfected cells were stimulated with various concentrations of agonists (under the stimulation of a certain concentration of forskolin). The relative light units from the cells after stimulation with different doses were measured, from which the EC50 value of the agonist was subsequently obtained by calculation.

Structure (SMILES) | EC50 [nM] | Relative Activity % [%]
CCOc1ccc(C[C@@H](NC(=O)[C@H](N)Cc2ccccc2)C(=O)N[C@H](CC(C)C)C(=O)N[C@H](CCCCN)C(=O)N2CCC(N)(C(=O)O)CC2)cc1 [Compound 2, D-Phe-D-Tyr(Et)-D-Leu-D-Lys-4-aminopiperidine-4-carboxylicacid-OH] (H-[dF][dY](Et)[dL][dK]-{Piperidin1yl(4-NH2,4-COOH)}; N-terminus assumed) | 0.117 | 519.0
CCOc1ccc(C[C@@H](NC(=O)[C@H](N)Cc2ccccc2)C(=O)N[C@H](CC(C)C)C(=O)N[C@H](CCCCN)C(=O)N2CCC(N)(C(=O)N[C@@H](CCCCN)C(=O)N[C@@H](CCCCN)C(=O)N[C@@H](CCCCN)C(N)=O)CC2)cc1 [Compound 7, D-Phe-D-Tyr(Et)-D-Leu-D-Lys-4-aminopiperidine-4-carboxamide-Lys-Lys-Lys-NH2] (I: H-[Api]KKK-NH2 / II: H-[dF][dY](Et)[dL][dK]; amide I:1-II:C; N-terminus assumed) | 0.0422 | 1438.9
CCOc1ccc(C[C@@H](NC(=O)[C@H](N)Cc2ccccc2)C(=O)N[C@H](CC(C)C)C(=O)N[C@H](CCCCN)C(=O)N2CCC(N)(C(=O)N[C@@H](CCCCN)C(=O)N[C@@H](CCCCN)C(=O)N[C@@H](CCCCN)C(=O)O)CC2)cc1 [Compound 8, D-Phe-D-Tyr(Et)-D-Leu-D-Lys-4-aminopiperidine-4-carboxamide-Lys-Lys-Lys-OH] (I: H-[Api]KKK-OH / II: H-[dF][dY](Et)[dL][dK]; amide I:1-II:C) | 0.0417 | 1456.1
CCOc1ccc(C[C@@H](NC(=O)[C@H](N)Cc2ccccc2)C(=O)N[C@H](CC(C)C)C(=O)N[C@H](CCCCN)C(=O)N2CCC(N)(C(=O)N[C@@H](CCCCN)C(=O)N[C@@H](CCCCN)C(=O)N[C@@H](CCCCN)C(=O)N[C@@H](CCCCN)C(N)=O)CC2)cc1 [Compound 9, D-Phe-D-Tyr(Et)-D-Leu-D-Lys-4-aminopiperidine-4-carboxamide-Lys-Lys-Lys-Lys-NH2] (H-[Api]([dK-dL-X12])KKKK-NH2; N-terminus assumed) | 0.0477 | 1273.0
CCOc1ccc(C[C@@H](NC(=O)[C@H](N)Cc2ccccc2)C(=O)N[C@H](CC(C)C)C(=O)N[C@H](CCCCN)C(=O)N2CCC(N)(C(=O)N[C@@H](CCCCN)C(=O)N[C@@H](CCCCN)C(=O)N[C@@H](CCCCN)C(=O)N[C@@H](CCCCN)C(=O)N[C@@H](CCCCN)C(=O)O)CC2)cc1 [Compound 12, D-Phe-D-Tyr(Et)-D-Leu-D-Lys-4-aminopiperidine-4-carboxamide-Lys-Lys-Lys-Lys-Lys-OH] (H-[Api]([dK-dL-X12])KKKKK-OH) | 0.0541 | 1122.4
CCOc1ccc(C[C@@H](NC(=O)[C@H](N)Cc2ccccc2)C(=O)N[C@H](CC(C)C)C(=O)N[C@H](CCCCN)C(=O)N2CCC(N)(C(=O)N[C@@H](CCCCN)C(=O)N[C@@H](CCCCN)C(=O)N[C@@H](CCCCN)C(=O)N[C@@H](CCCCN)C(=O)N[C@@H](CCCCN)C(=O)N[C@@H](CCCCN)C(N)=O)CC2)cc1 [Compound 13, D-Phe-D-Tyr(Et)-D-Leu-D-Lys-4-aminopiperidine-4-carboxamide-Lys-Lys-Lys-Lys-Lys-Lys-NH2] (H-[Api]([dK-dL-X12])KKKKKK-NH2; N-terminus assumed) | 0.0669 | 907.6
CCOc1ccc(C[C@@H](NC(=O)[C@H](N)Cc2ccccc2)C(=O)N[C@H](CC(C)C)C(=O)N[C@H](CCCCN)C(=O)N2CCC(N)(C(=O)N[C@H](CCCCN)C(N)=O)CC2)cc1 [Compound 15, D-Phe-D-Tyr(Et)-D-Leu-D-Lys-4-aminopiperidine-4-carboxamide-D-Lys-NH2] (H-[dF][dY](Et)[dL][dK]-X1; N-terminus assumed) | 0.0429 | 1415.4
CCOc1ccc(C[C@@H](NC(=O)[C@H](N)Cc2ccccc2)C(=O)N[C@H](CC(C)C)C(=O)N[C@H](CCCCN)C(=O)N2CCC(N)(C(=O)N[C@H](CCCCN)C(=O)N[C@H](CCCCN)C(N)=O)CC2)cc1 [Compound 17, D-Phe-D-Tyr(Et)-D-Leu-D-Lys-4-aminopiperidine-4-carboxamide-D-Lys-D-Lys-NH2] (H-[dF][dY](Et)[dL][dK]-X22; N-terminus assumed) | 0.0453 | 1340.4
CCOc1ccc(C[C@@H](NC(=O)[C@H](N)Cc2ccccc2)C(=O)N[C@H](CC(C)C)C(=O)N[C@H](CCCCN)C(=O)N2CCC(N)(C(=O)N[C@H](CCCCN)C(=O)N[C@H](CCCCN)C(=O)N[C@H](CCCCN)C(=O)O)CC2)cc1 [Compound 20, D-Phe-D-Tyr(Et)-D-Leu-D-Lys-4-aminopiperidine-4-carboxamide-D-Lys-D-Lys-D-Lys-OH] (I: H-[Api][dK][dK][dK]-OH / II: H-[dF][dY](Et)[dL][dK]; amide I:1-II:C) | 0.0482 | 1259.8
CCOc1ccc(C[C@@H](NC(=O)[C@H](N)Cc2ccccc2)C(=O)N[C@H](CC(C)C)C(=O)N[C@H](CCCCN)C(=O)N2CCC(N)(C(=O)N[C@H](CCCCN)C(=O)N[C@H](CCCCN)C(=O)N[C@H](CCCCN)C(=O)N[C@H](CCCCN)C(=O)O)CC2)cc1 [Compound 22, D-Phe-D-Tyr(Et)-D-Leu-D-Lys-4-aminopiperidine-4-carboxamide-D-Lys-D-Lys-D-Lys-D-Lys -OH] (H-[Api]([dK-dL-X12])[dK][dK][dK][dK]-OH) | 0.0506 | 1200.0
CCOc1ccc(C[C@@H](NC(=O)[C@H](N)Cc2ccccc2)C(=O)N[C@H](CC(C)C)C(=O)N[C@H](CCCCN)C(=O)N2CCC(N)(C(=O)N[C@H](CCCCN)C(=O)N[C@H](CCCCN)C(=O)N[C@H](CCCCN)C(=O)N[C@H](CCCCN)C(=O)N[C@H](CCCCN)C(=O)O)CC2)cc1 [Compound 24, D-Phe-D-Tyr(Et)-D-Leu-D-Lys-4-aminopiperidine-4-carboxamide-D-Lys-D-Lys-D-Lys-D-Lys -D-Lys-OH] (H-[Api]([dK-dL-X12])[dK][dK][dK][dK][dK]-OH) | 0.0561 | 1082.4
CCOc1ccc(C[C@@H](NC(=O)[C@H](N)Cc2ccccc2)C(=O)N[C@H](CC(C)C)C(=O)N[C@H](CCCCN)C(=O)N2CCC(N)(C(=O)N[C@H](CCCCN)C(=O)N[C@H](CCCCN)C(=O)N[C@H](CCCCN)C(=O)N[C@H](CCCCN)C(=O)N[C@H](CCCCN)C(=O)N[C@H](CCCCN)C(=O)O)CC2)cc1 [Compound 26, D-Phe-D-Tyr(Et)-D-Leu-D-Lys-4-aminopiperidine-4-carboxamide-D-Lys-D-Lys-D-Lys-D-Lys -D-Lys-D-Lys-OH] (H-[Api]([dK-dL-X12])[dK][dK][dK][dK][dK][dK]-OH) | 0.0671 | 904.9
CCOc1ccc(C[C@@H](NC(=O)[C@H](N)Cc2ccccc2)C(=O)N[C@H](CC(C)C)C(=O)N[C@H](CCCCN)C(=O)N2CCC(N)(C(=O)NCCOCC(=O)N[C@@H](CCCCN)C(N)=O)CC2)cc1 [Compound 27, D-Phe-D-Tyr(Et)-D-Leu-D-Lys-4-aminopiperidine-4-carboxamide-PEG1CH2CO-Lys-NH2] (H-[dF][dY](Et)[dL][dK]-X24) | 0.0462 | 1314.3
CCOc1ccc(C[C@@H](NC(=O)[C@H](N)Cc2ccccc2)C(=O)N[C@H](CC(C)C)C(=O)N[C@H](CCCCN)C(=O)N2CCC(N)(C(=O)NCCOCC(=O)N[C@@H](CCCCN)C(=O)O)CC2)cc1 [Compound 28, D-Phe-D-Tyr(Et)-D-Leu-D-Lys-4-aminopiperidine-4-carboxamide-PEG1CH2CO-Lys-OH] (H-[dF][dY](Et)[dL][dK]-X17) | 0.045 | 1349.3
CCOc1ccc(C[C@@H](NC(=O)[C@H](N)Cc2ccccc2)C(=O)N[C@H](CC(C)C)C(=O)N[C@H](CCCCN)C(=O)N2CCC(N)(C(=O)NCCOCC(=O)N[C@H](CCCCN)C(N)=O)CC2)cc1 [Compound 29, D-Phe-D-Tyr(Et)-D-Leu-D-Lys-4-aminopiperidine-4-carboxamide-PEG1CH2CO-D-Lys-NH2] (H-[dF][dY](Et)[dL][dK]-X9) | 0.0456 | 1331.6
CCOc1ccc(C[C@@H](NC(=O)[C@H](N)Cc2ccccc2)C(=O)N[C@H](CC(C)C)C(=O)N[C@H](CCCCN)C(=O)N2CCC(N)(C(=O)NCCOCC(=O)N[C@H](CCCCN)C(=O)O)CC2)cc1 [Compound 30, D-Phe-D-Tyr(Et)-D-Leu-D-Lys-4-aminopiperidine-4-carboxamide-PEG1CH2CO-D-Lys-OH] (H-[dF][dY](Et)[dL][dK]-X13) | 0.0465 | 1305.8
CCOc1ccc(C[C@@H](NC(=O)[C@H](N)Cc2ccccc2)C(=O)N[C@H](CC(C)C)C(=O)N[C@H](CCCCN)C(=O)N2CCC(N)(C(=O)NCCOCCOCC(=O)N[C@@H](CCCCN)C(N)=O)CC2)cc1 [Compound 31, D-Phe-D-Tyr(Et)-D-Leu-D-Lys-4-aminopiperidine-4-carboxamide-PEG2CH2CO -Lys-NH2] (H-[dF][dY](Et)[dL][dK]-X2) | 0.0532 | 1141.4
CCOc1ccc(C[C@@H](NC(=O)[C@H](N)Cc2ccccc2)C(=O)N[C@H](CC(C)C)C(=O)N[C@H](CCCCN)C(=O)N2CCC(N)(C(=O)NCCOCCOCC(=O)N[C@@H](CCCCN)C(=O)O)CC2)cc1 [Compound 32, D-Phe-D-Tyr(Et)-D-Leu-D-Lys-4-aminopiperidine-4-carboxamide-PEG2CH2CO -Lys-OH] (H-[dF][dY](Et)[dL][dK]-X15) | 0.0541 | 1122.4
